According to the supplement of paper PMC6531468:
The list shows a part of the results. These are enrichments in a pooled selection; single values are uncertain. Scores sum up all selected molecules that hold the word; the word was not tested alone.

Legend:
Assay in all cases: 6-mer SELEX enrichment z-score vs GST control; IMP3 is the RNA-binding protein IGF2BP3; higher = more enriched by binding
[1] = system: IMP3 KH1-4; conditions: construct: KH1-4 (164-579); SELEX round: R4
Experimental: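 SELEX-seq with GST-tagged IMP3 KH1-4 (Pro164-Lys579) and an N40 RNA pool, round 4. 6-mer z-score of sequence-tag enrichment normalised to the corresponding GST SELEX round; RNA k-mers written as DNA (T for U).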

[2] = system: IMP3 RRM1-2; conditions: construct: RRM1-2 (1-163); SELEX round: R2
Experimental: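 SELEX-seq with GST-tagged IMP3 RRM1-2 (Met1-Asn163) and an N40 RNA pool, round 2. 6-mer enrichment z-score normalised to GST SELEX. RNA written as DNA (T = U).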

[3] = target: IMP3 full-length (UniProt O00425); conditions: construct: FL IMP3 (1-579); SELEX round: R4
Experimental: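 SELEX-seq with GST-tagged full-length IMP3 and an N40 RNA pool, round 4. Each 6-mer is scored as an enrichment z-score of sequence tags containing it, normalised to the matching GST SELEX round. RNA written as DNA (T = U).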

[4] = system: IMP3 KH1-2; conditions: construct: KH1-2 (164-376); SELEX round: R4
Experimental: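 SELEX-seq with GST-tagged IMP3 KH1-2 (Pro164-Phe376) and an N40 RNA pool, round 4 (stringent 300/600 mM KCl washes). 6-mer z-score of sequence-tag enrichment normalised to the corresponding GST SELEX round; RNA k-mers written as DNA (T for U).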

[5] = system: IMP3 KH3-4; conditions: construct: KH3-4 (377-579); SELEX round: R4
Experimental: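 SELEX-seq with GST-tagged IMP3 KH3-4 (Pro377-Lys579) and an N40 RNA pool, round 4. 6-mer z-score of sequence-tag enrichment normalised to the corresponding GST SELEX round; RNA k-mers written as DNA (T for U).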

IMP3 KH1-4, sequence (chain, as listed by the source): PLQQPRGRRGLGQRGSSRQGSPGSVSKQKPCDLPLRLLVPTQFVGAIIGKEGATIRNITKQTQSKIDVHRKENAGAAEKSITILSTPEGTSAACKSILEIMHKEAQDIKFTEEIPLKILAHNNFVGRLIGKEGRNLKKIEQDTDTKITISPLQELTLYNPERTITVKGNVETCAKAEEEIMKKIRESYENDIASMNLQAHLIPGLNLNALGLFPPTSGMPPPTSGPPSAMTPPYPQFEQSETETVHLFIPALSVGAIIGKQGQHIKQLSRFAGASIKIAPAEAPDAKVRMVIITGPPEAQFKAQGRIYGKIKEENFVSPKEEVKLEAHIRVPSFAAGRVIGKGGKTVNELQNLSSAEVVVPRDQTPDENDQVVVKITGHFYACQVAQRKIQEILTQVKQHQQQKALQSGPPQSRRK
IMP3 KH3-4, sequence (chain, as listed by the source): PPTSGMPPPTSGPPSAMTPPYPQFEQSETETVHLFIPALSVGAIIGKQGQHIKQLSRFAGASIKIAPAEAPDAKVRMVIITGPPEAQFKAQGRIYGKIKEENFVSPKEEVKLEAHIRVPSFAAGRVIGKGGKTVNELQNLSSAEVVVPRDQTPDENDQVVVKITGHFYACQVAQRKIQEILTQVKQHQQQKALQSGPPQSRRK
IMP3 KH1-2, sequence (chain, as listed by the source): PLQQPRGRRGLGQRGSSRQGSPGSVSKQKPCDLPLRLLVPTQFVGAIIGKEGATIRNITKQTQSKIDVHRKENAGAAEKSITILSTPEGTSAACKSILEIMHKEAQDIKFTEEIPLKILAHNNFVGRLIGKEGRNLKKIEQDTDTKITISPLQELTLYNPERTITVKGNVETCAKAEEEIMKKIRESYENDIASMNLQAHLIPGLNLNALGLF
IMP3 RRM1-2, sequence (chain, as listed by the source): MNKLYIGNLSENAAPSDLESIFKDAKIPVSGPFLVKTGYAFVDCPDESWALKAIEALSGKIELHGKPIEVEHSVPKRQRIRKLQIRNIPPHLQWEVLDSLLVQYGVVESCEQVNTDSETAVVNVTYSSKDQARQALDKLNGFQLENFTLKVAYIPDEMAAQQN
UniProt O00425, sequence (O00425 whole entry): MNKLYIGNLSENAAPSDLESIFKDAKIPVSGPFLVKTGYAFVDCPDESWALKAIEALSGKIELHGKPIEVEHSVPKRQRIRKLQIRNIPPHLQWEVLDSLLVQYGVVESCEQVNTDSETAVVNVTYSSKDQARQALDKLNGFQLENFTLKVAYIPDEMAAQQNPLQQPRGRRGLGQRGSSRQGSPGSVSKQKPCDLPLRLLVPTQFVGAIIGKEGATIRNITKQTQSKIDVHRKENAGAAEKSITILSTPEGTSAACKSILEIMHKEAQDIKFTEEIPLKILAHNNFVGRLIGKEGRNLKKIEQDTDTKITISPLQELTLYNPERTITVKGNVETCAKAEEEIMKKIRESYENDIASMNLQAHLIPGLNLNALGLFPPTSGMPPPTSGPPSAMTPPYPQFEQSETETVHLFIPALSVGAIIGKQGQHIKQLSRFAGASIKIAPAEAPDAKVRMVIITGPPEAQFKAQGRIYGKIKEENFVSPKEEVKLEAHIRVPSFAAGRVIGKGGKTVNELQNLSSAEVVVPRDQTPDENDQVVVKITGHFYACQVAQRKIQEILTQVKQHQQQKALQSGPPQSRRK

Sequence	6-mer SELEX enrichment z-score [1]	6-mer SELEX enrichment z-score [2]	6-mer SELEX enrichment z-score [3]	6-mer SELEX enrichment z-score [4]	6-mer SELEX enrichment z-score [5]
CAACCC	-2.01	-0.567	-1.81	-2.01	-2.99
CTCATT	0.687	1.18	0.836	0.657	0.474
TACGAT	0.503	-0.386	-0.203	0.42	0.498
AGATTT	0.771	-0.152	-0.038	0.662	1.33
TGTCAC	0.1	0.27	0.356	-0.143	-0.146
TTGAAT	0.669	-0.345	-0.306	0.363	1.13
GAAGGT	0.058	-0.236	-0.033	0.066	0.222
GGACTG	0.198	-0.517	-0.149	0.173	0.005
TCCTAG	-0.077	-0.058	-0.238	-0.139	-0.133
ACCAGC	-0.863	0.162	-0.284	-0.88	-1.41
GTTTCA	-0.261	0.566	0.248	-0.195	-0.141
GCCCGC	-0.829	-0.145	-0.009	-0.496	-1.09
CAATTA	1.47	0.213	0.308	1.38	1.88
TAAGTA	0.239	-0.202	-0.225	0.149	0.65
CGACGG	-0.874	-0.536	0.024	-0.752	-0.882
CAGAGG	0.599	0.158	0.752	0.586	0.475
TTATCG	0.075	0.227	-0.098	-0.003	0.188
CACCCA	-1.55	-0.401	-1.19	-1.6	-2.33
GATCTC	-0.44	0.262	-0.055	-0.352	-0.449
CCGTGT	-0.225	-0.186	-0.1	-0.268	-0.361
TCGGCC	2.29	0.305	2.69	1.84	1.7
AGTGGC	0.949	0.198	0.91	0.694	0.935
GGGTGC	-0.066	0.241	0.257	0.181	0.153
ATCGGC	1.84	0.402	2.45	1.18	1.32

Sequence	6-mer SELEX enrichment z-score [1]	6-mer SELEX enrichment z-score [2]	6-mer SELEX enrichment z-score [3]	6-mer SELEX enrichment z-score [4]	6-mer SELEX enrichment z-score [5]
CTGGCT	-0.047	0.322	0.167	0.014	0.052
GTGGCA	0.959	0.26	1.2	0.727	0.881
GCTGTA	-0.056	-0.004	-0.046	-0.032	0.093
ACTGAT	0.945	-0.518	-0.109	0.865	0.869
GATAGG	0.744	-0.024	0.241	0.625	0.932
CCACTC	-0.685	0.634	-0.21	-0.569	-1.17
CTAAAA	-0.883	-1.87	-1.99	-0.829	-0.297
ACGCAC	0.794	0.83	0.871	0.776	-0.026
TCCGAA	-1.31	-1.06	-1.12	-1.07	-1.38
ATCTCC	0.126	0.196	-0.075	-0.028	-0.472
ACGCCG	-0.228	-0.484	0.162	-0.044	-0.631
ATATCG	0.585	0.091	0.383	–	0.569
CCGGCA	1.18	0.186	2.15	0.712	0.487
TTCATA	1.61	1.5	1.65	2	1.62
CAGCTG	-0.046	0.242	0.39	-0.003	-0.231
TGTCAA	-0.363	0.058	-0.169	-0.493	-0.402
TTTACT	0.796	0.286	0.043	0.82	1.05
AGGAAT	0.772	-0.497	-0.235	0.479	1.05
ATTAAT	1.96	0.023	0.385	1.74	2.93
GAGCTG	-1.55	-0.112	-0.837	-1.41	-1.26
GTAGGC	-0.037	0.228	0.378	-0.031	0.096
ACTTAG	-0.136	0.114	-0.246	-0.144	0.061
CGGTCT	-0.112	0.224	0.172	-0.081	0.035
TAGTAG	0.087	0.251	-0.002	0.029	0.273

Sequence	6-mer SELEX enrichment z-score [1]	6-mer SELEX enrichment z-score [2]	6-mer SELEX enrichment z-score [3]	6-mer SELEX enrichment z-score [4]	6-mer SELEX enrichment z-score [5]
CCCCAA	-1.55	-1.37	-1.76	-1.27	-2.39
TTCGTT	0.215	0.467	0.087	0.213	0.297
CGCTAC	0.105	0.049	0.063	0.254	-0.128
CATGGT	0.208	0.552	0.58	0.114	0.108
GTTCTG	0.124	0.219	0.067	0.094	0.116
CAAGGA	-0.025	-0.578	-0.163	-0.173	-0.038
GCCAGA	-0.041	-0.708	-0.033	-0.017	-0.112
AGGTAC	-0.599	0.052	0.092	-0.553	-0.535
ACCGCA	0.484	-0.046	0.459	–	-0.346
CGGGCA	-0.269	0.244	1.44	-0.099	-0.08
CGGATT	0.231	-0.149	0.033	0.115	0.42
AAAACC	-2.97	-2.63	-3.73	-2.39	-2.93
ATAAGC	0.224	-0.36	-0.139	0.047	0.397
TACTGG	0.126	0.182	0.014	0.071	0.121
GGGAAC	-0.006	-0.376	-0.044	0.045	-0.07
GCAACA	0.868	1.77	2.34	0.806	0.434
CGCCGT	-0.372	-0.115	0.245	-0.199	-0.385
TCAACC	-0.579	0.804	-0.238	-0.6	-1.19
GGTCGT	0.018	0.356	0.296	–	0.183
CACTGG	0.16	0.609	0.736	–	-0.19
GATCGC	-0.116	-0.202	-0.09	–	-0.243
GGACCC	-1	-0.524	-0.295	–	-1.47
CAATAT	1.96	0.257	1.01	–	2.26
AGCGAC	-1.51	-0.331	-0.3	–	-1.45

Sequence	6-mer SELEX enrichment z-score [1]	6-mer SELEX enrichment z-score [2]	6-mer SELEX enrichment z-score [3]	6-mer SELEX enrichment z-score [4]	6-mer SELEX enrichment z-score [5]
ATGACC	-0.101	-1.1	-1.03	–	-0.606
ACTGTC	0.242	0.001	0.035	–	-0.15
TTTCCG	0.445	0.016	0.012	–	0.18
GGACGT	-0.695	-0.259	-0.281	–	-0.517
TGTTAG	0.206	0.289	-0.035	–	0.254
GTTCTC	-0.198	0.406	0.077	–	-0.116
GATACC	-1.16	-0.737	-0.991	–	-1.25
TGTGGC	0.642	0.242	0.415	–	0.6
GGCTGG	0.534	0.261	0.819	–	0.51
CGAACC	-2.17	-1.19	-1.62	–	-2.47
TTGCCA	0.016	-0.051	-0.199	–	-0.199
GGTACA	-0.239	0.186	0.417	–	-0.35
CTGTTT	0.226	0.292	-0.048	–	0.242
CTAAGA	-0.162	-0.722	-0.737	–	0.133
GTGCAC	0.585	0.17	0.635	–	0.156
GAAAAT	0.375	-1.88	-1.21	–	1.4
AATTGA	0.29	-1.14	-0.978	–	1.16
TCCCTC	0.001	0.166	-0.307	–	-0.507
CCCCCT	0.018	-0.556	-0.768	–	-0.621
GGTGCT	-0.266	0.337	0.083	–	-0.007
GGTTGC	0.013	0.378	0.075	–	0.048
CTCGAG	-0.807	0.633	0.095	–	-0.465
AAGGTG	-0.045	-0.321	-0.156	–	0.23
ATACAC	2.17	1.65	1.65	–	1.74

Sequence	6-mer SELEX enrichment z-score [1]	6-mer SELEX enrichment z-score [2]	6-mer SELEX enrichment z-score [3]	6-mer SELEX enrichment z-score [4]	6-mer SELEX enrichment z-score [5]
CCCTTA	0.375	-0.043	-0.518	–	-0.111
CTGCAC	0.819	0.294	0.645	–	-0.046
CACGGC	1.74	1.16	3.16	–	0.855
AACTGG	-0.103	-0.525	-0.34	–	-0.108
GACAAG	-0.168	-0.628	-0.336	–	-0.196
CTACCT	-0.988	-0.244	-0.906	–	-0.972
TGCGGC	1.08	0.306	1.34	–	1.06
TTGGGA	-0.163	0.132	0.002	–	0.064
CTCCAA	-0.853	-0.292	-0.78	–	-1.14
ATCAGC	-0.042	1.1	1.2	–	-0.293
AGCGAG	-2.07	-0.47	-0.63	–	-1.65
ACTGCG	-0.643	-0.131	-0.344	–	-0.64
CTAACT	0.316	-0.274	-0.474	–	0.283
GAGCGT	-3.85	-0.205	-2.04	–	-3.47
CGGAGC	-1.34	-0.365	0.011	–	-1.11
CATTGT	0.611	0.672	0.662	–	0.461
CTCCTT	0.65	0.189	0	–	0.307
AGGGAA	1.08	-0.765	0.013	–	1.2
TCGTAC	-0.452	0.133	0.016	–	-0.478
TCGTTC	0.099	0.506	0.173	–	0.02
GGCTAT	0.329	0.413	0.436	–	0.746
AAACTC	-1.27	-0.466	-1.42	–	-1.53
TTGCTG	0.363	0.226	0.003	–	0.27
GACTCC	-0.664	-0.559	-0.763	–	-1
